# Experimental data reported in paper PMC4336329 (PLoS ONE, 2015).
# Hit rate of the full screen: of about 310,000 compounds, about 14,000 (4.5%) showed an effect of 50% or more. Effects have a minus sign here. Some of the results follow.
# Biological target: human ether-à-go-go-related gene (hERG) potassium channel (human, UniProt Q12809)
# Test: primary screen, population patch clamp on CHO cells stably expressing hERG
# 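Further: peak tail current of the secondary pulse compared with the same well before compound.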
# human ether-à-go-go-related gene (hERG) potassium channel, sequence (Q12809 whole entry, looked up): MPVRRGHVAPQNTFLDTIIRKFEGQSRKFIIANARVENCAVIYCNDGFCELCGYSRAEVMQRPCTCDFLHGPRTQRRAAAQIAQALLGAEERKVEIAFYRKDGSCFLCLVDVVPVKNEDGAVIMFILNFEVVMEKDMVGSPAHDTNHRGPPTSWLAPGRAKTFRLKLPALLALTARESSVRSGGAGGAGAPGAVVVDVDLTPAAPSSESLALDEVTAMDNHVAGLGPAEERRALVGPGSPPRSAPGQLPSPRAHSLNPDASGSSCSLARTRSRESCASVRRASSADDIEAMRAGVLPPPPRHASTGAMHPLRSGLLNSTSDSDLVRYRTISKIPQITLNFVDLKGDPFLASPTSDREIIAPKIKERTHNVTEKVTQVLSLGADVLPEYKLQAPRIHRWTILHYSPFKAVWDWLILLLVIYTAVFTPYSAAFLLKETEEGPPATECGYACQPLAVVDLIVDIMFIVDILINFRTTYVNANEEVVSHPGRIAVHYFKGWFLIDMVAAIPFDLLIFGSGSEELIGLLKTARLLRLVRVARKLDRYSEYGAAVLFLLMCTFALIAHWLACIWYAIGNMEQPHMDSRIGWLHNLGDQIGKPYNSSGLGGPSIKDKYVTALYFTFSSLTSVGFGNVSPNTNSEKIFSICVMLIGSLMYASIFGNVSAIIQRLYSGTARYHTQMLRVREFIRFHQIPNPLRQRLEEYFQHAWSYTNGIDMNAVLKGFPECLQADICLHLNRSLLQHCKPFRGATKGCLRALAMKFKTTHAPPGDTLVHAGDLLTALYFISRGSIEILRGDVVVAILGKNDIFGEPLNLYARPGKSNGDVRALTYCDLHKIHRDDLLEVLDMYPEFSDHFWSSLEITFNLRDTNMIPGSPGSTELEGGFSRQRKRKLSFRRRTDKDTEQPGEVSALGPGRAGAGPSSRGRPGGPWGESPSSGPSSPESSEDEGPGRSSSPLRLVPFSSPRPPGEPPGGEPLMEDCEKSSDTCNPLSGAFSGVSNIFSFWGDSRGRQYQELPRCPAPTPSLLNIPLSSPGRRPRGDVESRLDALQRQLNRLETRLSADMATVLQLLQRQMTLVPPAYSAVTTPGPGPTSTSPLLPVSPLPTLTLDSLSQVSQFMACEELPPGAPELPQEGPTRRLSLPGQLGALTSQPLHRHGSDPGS
row,SMILES,"hERG current change (%, negative = inhibition) at 10uM [%]"
1,CCOc1ccccc1NC(=O)CN1CCC(C(=O)c2ccc(F)cc2)CC1,-20.9
2,O=c1oc(-c2cccs2)nc2ccc(Cl)cc12,21.4
3,S=c1[nH]nc(-c2ccccn2)n1/N=C/c1ccc(-c2ccccc2Cl)o1,20.5
4,CC(=O)c1cn(N2CCCCC2)c(=O)[nH]c1=O,19.6
5,COc1cccc(NC(=O)CCNS(=O)(=O)c2ccc3c(c2)CC(C)N3C(=O)C2CC2)c1 (stereo not drawn),-5.18
6,O=C(CCS(=O)(=O)Cc1ccccc1)NCC1CCCO1 (stereo not drawn),8.35
7,COc1ccc(OCCN2C(=O)c3ccccc3C2=O)c([N+](=O)[O-])c1,-25
8,COC(=O)NCN1C(=O)C2C3C=CC(C3)C2C1=O (stereo not drawn),17.6
9,CC(C)CCNC(=O)c1c(N)n(Cc2ccc3c(c2)OCO3)c2nc3ccccc3nc12,4.13
10,COc1cc(NC(=S)NC(C)(C)C)c(OC)cc1Cl,1.18
11,CS(=O)(=O)c1ccc(C(=O)NC2CCCCC2)cc1,12.1
12,CCCCn1c(N)c(N(CC(C)C)C(=O)c2cccc(S(=O)(=O)N(C)c3ccc(C)cc3)c2)c(=O)[nH]c1=O,-1.62
13,Cc1nc2ncnn2c(C)c1CCC(=O)N1CCCCC1,-2.79
14,S=C(NCc1ccccc1)N1CCN(C(=S)NCc2ccccc2)CC1,12.9
15,O=C(NCCCn1ccnc1)c1nn2c(C(F)(F)F)cc(-c3ccc(Br)cc3)nc2c1Cl,-65.7
16,COc1ccc(C(=O)NNC(=O)CSc2nnc(C)n2C)cc1,21.7
17,Nc1ccc(NC(=O)Nc2ccc(N)cc2)cc1,15.9
18,CN(CC(=O)Nc1ccccc1Cl)C(=O)COC(=O)CCN1C(=O)C2CC=CCC2C1=O (stereo not drawn),13.3
19,Cc1ccc(N2Cc3ccccc3C2=S)cc1,-19.6
20,O=C(CSc1nnc(-c2ccccn2)n1Cc1ccco1)c1ccc(Cl)cc1,-43.1
21,CCCc1nc(N2CCOCC2)c(C#N)c2c1CCCC2,1.31
22,COc1cccc(C(=O)NC2CCCc3ccccc32)c1OC (stereo not drawn),-1.84
23,COc1cccc2cc(C(=O)OCC(=O)NCc3ccc4c(c3)OCO4)c(=O)oc12,2.02

row,SMILES,"hERG current change (%, negative = inhibition) at 10uM [%]"
1,O=C(NCC1CCCO1)C(=O)N/N=C/c1ccc(OCc2ccccc2Cl)cc1 (stereo not drawn),0.8
2,CCN(CC(=O)Nc1c(F)cccc1F)C(=O)Cc1ccc2c(c1)OCCO2,-3.07
3,CC(CCc1ccccc1)NC(=S)NC(=O)c1ccco1 (stereo not drawn),-19.5
4,COc1ccc(S(=O)(=O)Nc2ncccn2)cc1,10.7
5,COc1ccc(OP(=O)(Nc2ccccc2)Nc2ccccc2)cc1,-13.8
6,CC(=O)n1cc([C@@H]2C=C(C(=O)Nc3ccccc3)O[C@H](OCc3ccc(CO)cc3)C2)c2ccccc21,-29.7
7,CSc1ncccc1C(=O)NC1CC(C)(C)Cc2c1cnn2-c1ccccc1C (stereo not drawn),-7.58
8,CN1C=CC2=C(C#N)C(N)C(C#N)(C#N)C(c3ccccc3)C2C1 (stereo not drawn),9.49
9,CC(=O)Nc1nc(C)c(-c2nc3ccc([N+](=O)[O-])cc3[nH]2)s1,13.9
10,c1ccc2c(CNn3cnnc3)cccc2c1,9.16
11,Cc1ccc(NC(=O)CCc2c(C)nn(-c3ccc(N4CCOCC4)nn3)c2C)cc1C,3.81
12,O=c1oc2ccccc2cc1-c1nc2c(s1)CCCC2,4.04
13,CCOC(=O)c1c(C)[nH]c(N=Nc2ccc(C)cc2C)c1C,13.5
14,CC1CCCC(NC(=O)Cn2cc3c(n2)CCCCC3)C1C (stereo not drawn),0.213
15,Cc1cnc(C(=O)N2CCCC(C(=O)c3ccc(C(C)(C)C)cc3)C2)cn1 (stereo not drawn),-20.7
16,Cc1cccc(N2CCN(c3ccc(C(N)=O)cc3[N+](=O)[O-])CC2)c1C,21.7
17,COc1ccc2oc(C(=O)OCC(=O)NC(C)(C#N)C3CC3)c(C)c2c1 (stereo not drawn),3.21
18,O=C1CCCC2=C1C(c1ccccc1O)C1=C(CCCC1=O)O2,-5.36
19,Cc1ccc(C(OC(=O)c2ccco2)C(=O)NC2CCCCC2)cc1 (stereo not drawn),12.1
20,O=C1C(Cl)=C(Nc2ccccc2O)C(=O)N1c1ccccc1,0.891
21,NC(=O)CSc1nc(O)cc(=O)n1-c1ccccc1,12.4
22,CC(=O)Nc1cc(C)c2nc(NC(C)=O)sc2c1,14
23,O=C(NCc1cccnc1)/C(=C/c1ccco1)NC(=O)c1ccccc1,-58.6

row,SMILES,"hERG current change (%, negative = inhibition) at 10uM [%]"
1,Cc1ccc(N=Nc2c(N)nn3c(C)cc(C)nc23)cc1,-12.5
2,O=C(Nc1nnc(C2COc3ccccc3O2)o1)c1ccc(F)cc1 (stereo not drawn),10.5
3,Cc1cc(C)c(C#N)c(SCc2ccccc2C(=O)O)n1,-0.731
4,CC(=NCC1CCCO1)c1c(O)n(Cc2ccccc2)c(=O)[nH]c1=O (stereo not drawn),-17.9
5,N#Cc1nc(COc2ccccc2Cl)oc1NCc1ccco1,3.28
6,Cn1c(=O)c2c(nc3n2CCS3)n(C)c1=O,-7.13
7,O=c1cc(-c2ccccc2F)oc2ccccc12,-10.8
8,CCCCC(=O)NNC(=S)NC(=O)CCC,12.4
9,O=C1CSc2ccc(S(=O)(=O)NCc3ccc(Cl)cc3)cc2N1,2.19
10,OC(Cn1cncn1)(c1ccc(F)cc1)c1ccc(Cl)cc1 (stereo not drawn),8.7
11,CC(=O)c1ccc([N+](=O)[O-])c(CS(=O)(=O)c2ccccc2)c1,18.1
12,O=C(NCc1ccc2c(c1)OCO2)c1c(O)nc2sccn2c1=O,-1.82
13,CCCc1nc2ccccc2c(C(=O)OCC(=O)Nc2c(C)n(C)n(-c3ccccc3)c2=O)c1CC,0.724
14,COc1ccc(CN(Cc2ccc(C(=O)O)cc2)C(=S)Nc2cccc(C)c2)cc1OC,19.7
15,CCC(OC(=O)c1nsc(Cl)c1Cl)C(=O)NCC1CCCO1 (stereo not drawn),5.94
16,COc1ccc(C2CC(c3ccc(Cl)cc3Cl)Nc3nc(N)nn32)cc1 (stereo not drawn),-41.3
17,COc1ccc(/C=N/NC(=O)CCc2c(C)n[nH]c2C)cc1OC,18.8
18,CC(=O)[O-].[K+].c1ccc2c(c1)OCCOCCOc1ccccc1OCCOCCO2,-74.7
19,COc1ccc(C2OC(=O)CC2C(=O)N2CCN(c3cc(Cl)ccc3C)CC2)cc1OC (stereo not drawn),-36
20,CCOc1ccc(NC(=O)COC(=O)Cc2ccc(S(=O)(=O)N3CCOCC3)s2)cc1,-6.18
21,CC(Nc1ccc(Br)cc1)C(=O)N/N=C/c1ccccc1OCc1ccccc1 (stereo not drawn),-3.72
22,COc1ccccc1C(=O)NC(CCSC)C(=O)OCC(=O)NC(=O)NCc1ccco1 (stereo not drawn),-17.7
23,C=CCn1c(Cc2ccccc2)nc2c(cnn2-c2ccccc2)c1=O,-34.8

row,SMILES,"hERG current change (%, negative = inhibition) at 10uM [%]"
1,O=C(NCc1ccco1)c1ccc(C(F)(F)F)cc1,5.37
2,CCC1CN(C(=O)Nc2ccc(C)cc2)c2cc(C)ccc2O1 (stereo not drawn),10
3,CC1=C(C(=O)OCc2ccccc2)C(c2ccccc2Cl)NC(=O)N1CCCCCC(=O)O (stereo not drawn),-12.4
4,Cc1ccc(S(=O)(=O)N2CCOCC2)cc1NC(=O)CNCc1ccccn1.O=C(O)C(=O)O,-3.51
5,COc1ccc(Cl)cc1NC(=O)CN(C)C(=O)C1CCN(C(=O)Nc2ccccc2)CC1,-46.9
6,COc1ccc(-c2nc(=S)n3ccsc3n2)cc1OC,11.9
7,Cc1nc2ccc3nc(NC(=O)c4ccco4)sc3c2s1,-1.16
8,CCN(CC)S(=O)(=O)c1ccc(C2=NOC3(C2)N(C)c2ccccc2C3(C)C)cc1 (stereo not drawn),8.84
9,O=C(Nc1ccc2c(c1)OCCO2)c1cccc(S(=O)(=O)N2CCCCC2)c1,-25.4
10,Cc1cc(C)c(C#N)c(Sc2ccc(N)cc2)n1,-20.4
11,CCOC(=O)N1CCC(c2cc(=O)n(-c3ccccc3)[nH]2)CC1,49.6
12,CCNC(=S)NC1CC2CCCC(C1)N2CCc1ccccc1 (stereo not drawn),-48.7
13,Cc1nc(N2CCOCC2)c2oc3ccccc3c2n1,-9.35
14,Cc1ccc(S(=O)(=O)NCC(=O)OCC(=O)c2cccs2)cc1,0.259
15,Cc1c(F)cccc1NC(=O)CSCC(=O)Nc1ccccc1,1.98
16,N#Cc1c(SCC(=O)Nc2nccs2)nc2c(c1-c1ccco1)CCCC2,-3.63
17,CCCC1Cc2[nH]c(=O)c(C#N)cc2CO1 (stereo not drawn),12.5
18,Cc1ccc(C)c(OCCCC(=O)Nc2ccccc2C(N)=O)c1,-18.8
19,O=C(O)CCCn1c(=O)c2cccn2c2ccc(F)cc21,-0.988
20,Cc1ccc(NC(=O)C(C)NC(=O)OCc2ccccc2)cc1C (stereo not drawn),4.66
21,CN(C)S(=O)(=O)c1ccc(C(=O)NCC2(N3CCOCC3)CCCCC2)cc1,-9.69
